{"source": "the supplement of paper PMC8728848", "binders": {"B1": {"name": "B1567 (Bifidobacterium sp) (protein)", "chain": "MKFTTAKKAVALTGAVAMLVSVAACGSDSGKSSQPAQDSDVKEITVWAWEPSLTQVAKDFEKETGIKVDLKNVGTNTKEYTQLDNAIEAGSGAPDVAQVEYYAVPQYAIKGNLLDITDKTSGYKDFYTPGPWASVQFAGKVYGLPMDSGPMAFFYNKEVFDKAGVDAEQIKTWDQYYDAAKKIHALGDNYYITSDTGDAGFFDSMTWLAGAKPFQTSSDGSEVTVNLTEDKGVKTFTDFWQKLLDEGLLDTKTAGWSEDWFKGMVDGTIASLFTGAWMPANLANSAADGAGKWRVTQMPTADGSTTNSENGGSSLAVLASTKKADAAYQFIEYANHGAGVATRVAGGAFPADKASLEKDSFKNATTVKNADGQDVDYFGGQKYNEVLAQAAENVSSGYQFLPFEVKARTIFGDYFGKSYTGDQKLSDGVAAWQKALQDYGKDQGFTVK"}}, "assay_in_all_cases": "glycan array binding signal (z-score within array); higher = stronger binding", "conditions_in_all_cases": "glycan notation: IUPAC condensed, linker removed", "key": {"[1]": {"biological_target": "Neu5Ac(a2-6)GlcNAc(b1-4)GlcNAc(b1-4)GlcNAc", "how_it_was_run": "(§1)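 Glycan array binding is given as a within-array Z-score, which can be read as non-binding when negative. The arrays, 3228 of them, came from the Consortium for Functional Glycomics database and were retained only where the protein sequence was available. Z-scores were averaged across arrays of the same protein sequence at different concentrations or buffers and across linkers.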"}, "Neu5Ac(a2-8)Neu5Ac": {"biological_target": "Neu5Ac(a2-8)Neu5Ac", "how_it_was_run": "as §1"}, "[2]": {"biological_target": "Neu5Ac(a2-8)Neu5Ac(a2-3)Gal(b1-3)GalNAc(b1-4)[Neu5Ac(a2-3)]Gal(b1-4)Glc", "how_it_was_run": "as §1"}, "[3]": {"biological_target": "Neu5Ac(a2-8)Neu5Ac(a2-3)Gal(b1-3)GalNAc(b1-4)[Neu5Ac(a2-8)Neu5Ac(a2-3)]Gal(b1-4)Glc", "how_it_was_run": "as §1"}, "[4]": {"biological_target": "Neu5Ac(a2-8)Neu5Ac(a2-3)Gal(b1-4)Glc", "how_it_was_run": "as §1"}, "[5]": {"biological_target": "Neu5Ac(a2-8)Neu5Ac(a2-3)Gal(b1-4)GlcNAc", "how_it_was_run": "as §1"}, "[6]": {"biological_target": "Neu5Ac(a2-8)Neu5Ac(a2-3)[Gal(b1-3)GalNAc(b1-4)]Gal(b1-4)Glc", "how_it_was_run": "as §1"}, "[7]": {"biological_target": "Neu5Ac(a2-8)Neu5Ac(a2-3)[GalNAc(b1-4)]Gal(b1-4)Glc", "how_it_was_run": "as §1"}, "[8]": {"biological_target": "Neu5Ac(a2-8)Neu5Ac(a2-8)Neu5Ac", "how_it_was_run": "as §1"}, "[9]": {"biological_target": "Neu5Ac(a2-8)Neu5Ac(a2-8)Neu5Ac(a2-3)Gal(b1-4)Glc", "how_it_was_run": "as §1"}, "[10]": {"biological_target": "Neu5Ac(a2-8)Neu5Ac(a2-8)Neu5Ac(a2-3)[Gal(b1-3)GalNAc(b1-4)]Gal(b1-4)Glc", "how_it_was_run": "as §1"}, "[11]": {"biological_target": "Neu5Ac(a2-8)Neu5Ac(a2-8)Neu5Ac(a2-3)[GalNAc(b1-4)]Gal(b1-4)Glc", "how_it_was_run": "as §1"}, "[12]": {"biological_target": "Neu5Ac(a2-8)Neu5Ac(a2-8)Neu5Ac(a2-8)Neu5Ac(a2-3)[GalNAc(b1-4)]Gal(b1-4)Glc", "how_it_was_run": "as §1"}, "[13]": {"biological_target": "Neu5Ac(a2-8)Neu5Gc(a2-3)Gal(b1-4)GlcNAc", "how_it_was_run": "as §1"}, "[14]": {"biological_target": "Neu5Ac(b2-6)Gal(b1-4)GlcNAc", "how_it_was_run": "as §1"}, "Neu5Ac(b2-6)GalNAc": {"biological_target": "Neu5Ac(b2-6)GalNAc", "how_it_was_run": "as §1"}, "[15]": {"biological_target": "Neu5Ac9Ac(a2-3)Gal(b1-3)GlcNAc", "how_it_was_run": "as §1"}, "[16]": {"biological_target": "Neu5Ac9Ac(a2-3)Gal(b1-4)GlcNAc", "how_it_was_run": "as §1"}, "[17]": {"biological_target": "Neu5Ac9Ac(a2-6)Gal(b1-4)GlcNAc", "how_it_was_run": "as §1"}, "[18]": {"biological_target": "Neu5Gc(a2-3)Gal(b1-3)GlcNAc", "how_it_was_run": "as §1"}, "[19]": {"biological_target": "Neu5Gc(a2-3)Gal(b1-3)[Fuc(a1-4)]GlcNAc", "how_it_was_run": "as §1"}, "Neu5Gc(a2-3)Gal(b1-4)Glc": {"biological_target": "Neu5Gc(a2-3)Gal(b1-4)Glc", "how_it_was_run": "as §1"}, "[20]": {"biological_target": "Neu5Gc(a2-3)Gal(b1-4)GlcNAc", "how_it_was_run": "as §1"}, "[21]": {"biological_target": "Neu5Gc(a2-3)Gal(b1-4)GlcNAc(b1-3)Gal(b1-4)GlcNAc(b1-2)Man(a1-3)[Neu5Gc(a2-3)Gal(b1-4)GlcNAc(b1-3)Gal(b1-4)GlcNAc(b1-2)Man(a1-6)]Man(b1-4)GlcNAc(b1-4)GlcNAc", "how_it_was_run": "as §1"}, "[22]": {"biological_target": "Neu5Gc(a2-3)Gal(b1-4)[Fuc(a1-3)]GlcNAc", "how_it_was_run": "as §1"}, "[23]": {"biological_target": "Neu5Gc(a2-6)Gal(b1-4)GlcNAc", "how_it_was_run": "as §1"}, "Neu5Gc(a2-6)GalNAc": {"biological_target": "Neu5Gc(a2-6)GalNAc", "how_it_was_run": "as §1"}, "[24]": {"biological_target": "Neu5Gc(a2-8)Neu5Ac(a2-3)Gal(b1-4)GlcNAc", "how_it_was_run": "as §1"}, "[25]": {"biological_target": "Neu5Gc(a2-8)Neu5Gc(a2-3)Gal(b1-4)GlcNAc", "how_it_was_run": "as §1"}, "[26]": {"biological_target": "Neu5Gc(a2-8)Neu5Gc(a2-3)Gal(b1-4)GlcNAc(b1-3)Gal(b1-4)GlcNAc", "how_it_was_run": "as §1"}, "[27]": {"biological_target": "Neu5Gc(a2-8)Neu5Gc(a2-6)Gal(b1-4)GlcNAc", "how_it_was_run": "as §1"}, "[28]": {"biological_target": "Neu5Gc(b2-6)Gal(b1-4)GlcNAc", "how_it_was_run": "as §1"}}, "note": "The other results are listed elsewhere or left out."}
{"binder": "B1", "values": [{"measurement": "glycan array binding signal (z-score)", "setting": "[1]", "value": -0.184}, {"measurement": "glycan array binding signal (z-score)", "setting": "Neu5Ac(a2-8)Neu5Ac", "value": -0.122}, {"measurement": "glycan array binding signal (z-score)", "setting": "[2]", "value": -0.17}, {"measurement": "glycan array binding signal (z-score)", "setting": "[3]", "value": -0.077}, {"measurement": "glycan array binding signal (z-score)", "setting": "[4]", "value": -0.098}, {"measurement": "glycan array binding signal (z-score)", "setting": "[5]", "value": -0.129}, {"measurement": "glycan array binding signal (z-score)", "setting": "[6]", "value": -0.097}, {"measurement": "glycan array binding signal (z-score)", "setting": "[7]", "value": -0.091}, {"measurement": "glycan array binding signal (z-score)", "setting": "[8]", "value": -0.16}, {"measurement": "glycan array binding signal (z-score)", "setting": "[9]", "value": -0.14}, {"measurement": "glycan array binding signal (z-score)", "setting": "[10]", "value": -0.101}, {"measurement": "glycan array binding signal (z-score)", "setting": "[11]", "value": -0.116}, {"measurement": "glycan array binding signal (z-score)", "setting": "[12]", "value": -0.062}, {"measurement": "glycan array binding signal (z-score)", "setting": "[13]", "value": -0.089}, {"measurement": "glycan array binding signal (z-score)", "setting": "[14]", "value": -0.054}, {"measurement": "glycan array binding signal (z-score)", "setting": "Neu5Ac(b2-6)GalNAc", "value": -0.144}, {"measurement": "glycan array binding signal (z-score)", "setting": "[15]", "value": -0.1}, {"measurement": "glycan array binding signal (z-score)", "setting": "[16]", "value": -0.065}, {"measurement": "glycan array binding signal (z-score)", "setting": "[17]", "value": -0.122}, {"measurement": "glycan array binding signal (z-score)", "setting": "[18]", "value": -0.127}, {"measurement": "glycan array binding signal (z-score)", "setting": "[19]", "value": -0.073}, {"measurement": "glycan array binding signal (z-score)", "setting": "Neu5Gc(a2-3)Gal(b1-4)Glc", "value": -0.016}, {"measurement": "glycan array binding signal (z-score)", "setting": "[20]", "value": -0.105}, {"measurement": "glycan array binding signal (z-score)", "setting": "[21]", "value": -0.066}, {"measurement": "glycan array binding signal (z-score)", "setting": "[22]", "value": -0.036}, {"measurement": "glycan array binding signal (z-score)", "setting": "[23]", "value": -0.101}, {"measurement": "glycan array binding signal (z-score)", "setting": "Neu5Gc(a2-6)GalNAc", "value": -0.074}, {"measurement": "glycan array binding signal (z-score)", "setting": "[24]", "value": -0.035}, {"measurement": "glycan array binding signal (z-score)", "setting": "[25]", "value": -0.086}, {"measurement": "glycan array binding signal (z-score)", "setting": "[26]", "value": -0.116}, {"measurement": "glycan array binding signal (z-score)", "setting": "[27]", "value": -0.077}, {"measurement": "glycan array binding signal (z-score)", "setting": "[28]", "value": -0.086}]}
